Measured values taken from the supplement of paper PMC8728848.
Some of the results follow.

What was measured:
Assay in all cases: glycan array binding signal (z-score within array); higher = stronger binding
Details in all cases: glycan notation: IUPAC condensed, linker removed
[1] = target: Gal(b1-4)GlcNAc(b1-2)Man(a1-6)[GlcNAc(b1-2)Man(a1-3)]Man(b1-4)GlcNAc(b1-4)GlcNAc
In short: (§1)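 The binding signal is a Z-score computed within each array. Data were drawn from 3228 arrays in the Consortium for Functional Glycomics database, restricted to those with a known protein sequence. Scores were averaged over arrays of the same protein sequence at different concentrations or buffers, and over linkers, and negative values can be taken as non-binding.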

[2] = target: Gal(b1-4)GlcNAc(b1-2)Man(a1-6)[Man(a1-3)]Man(b1-4)GlcNAc(b1-4)GlcNAc
In short: as §1

[3] = target: Gal(b1-4)GlcNAc(b1-2)[Gal(b1-4)GlcNAc(b1-4)]Man(a1-3)[Gal(b1-4)GlcNAc(b1-2)Man(a1-6)]Man(b1-4)GlcNAc(b1-4)GlcNAc
In short: as §1

[4] = target: Gal(b1-4)GlcNAc(b1-2)[Gal(b1-4)GlcNAc(b1-4)]Man(a1-3)[Gal(b1-4)GlcNAc(b1-2)[Gal(b1-4)GlcNAc(b1-6)]Man(a1-6)]Man(b1-4)GlcNAc(b1-4)GlcNAc
In short: as §1

[5] = target: Gal(b1-4)GlcNAc(b1-3)Gal(b1-3)GlcNAc
In short: as §1

[6] = target: Gal(b1-4)GlcNAc(b1-3)Gal(b1-4)Glc
In short: as §1

[7] = target: Gal(b1-4)GlcNAc(b1-3)Gal(b1-4)GlcNAc
In short: as §1

[8] = target: Gal(b1-4)GlcNAc(b1-3)Gal(b1-4)GlcNAc(b1-3)Gal(b1-4)GlcNAc
In short: as §1

[9] = target: Gal(b1-4)GlcNAc(b1-3)Gal(b1-4)[Fuc(a1-3)]GlcNAc(b1-3)Gal(b1-4)[Fuc(a1-3)]GlcNAc
In short: as §1

[10] = target: Gal(b1-4)GlcNAc(b1-3)GalNAc
In short: as §1

[11] = target: Gal(b1-4)GlcNAc(b1-3)[Gal(b1-4)GlcNAc(b1-6)]Gal(b1-4)GlcNAc
In short: as §1

[12] = target: Gal(b1-4)GlcNAc(b1-3)[Gal(b1-4)GlcNAc(b1-6)]GalNAc
In short: as §1

[13] = target: Gal(b1-4)GlcNAc(b1-3)[GlcNAc(b1-6)]Gal(b1-4)GlcNAc
In short: as §1

[14] = target: Gal(b1-4)GlcNAc(b1-6)Gal(b1-4)GlcNAc
In short: as §1

[15] = target: Gal(b1-4)GlcNAc(b1-6)GalNAc
In short: as §1

[16] = target: Gal(b1-4)GlcNAc(b1-6)[Gal(b1-3)]GalNAc
In short: as §1

[17] = target: Gal3S(b1-3)GalNAc
In short: as §1

[18] = target: Gal3S(b1-3)GlcNAc
In short: as §1

[19] = target: Gal3S(b1-3)[Fuc(a1-4)]GlcNAc
In short: as §1

[20] = target: Gal3S(b1-4)Glc
In short: as §1

[21] = target: Gal3S(b1-4)Glc6S
In short: as §1

[22] = target: Gal3S(b1-4)GlcNAc
In short: as §1

[23] = target: Gal3S(b1-4)GlcNAc6S
In short: as §1

[24] = target: Gal3S(b1-4)[Fuc(a1-3)]Glc
In short: as §1

[25] = target: Gal3S(b1-4)[Fuc(a1-3)]Glc6S
In short: as §1

[26] = target: Gal3S4S(b1-4)GlcNAc
In short: as §1

[27] = target: Gal3S6S(b1-4)GlcNAc
In short: as §1

[28] = target: Gal3S6S(b1-4)GlcNAc6S
In short: as §1

[29] = target: Gal4S(b1-4)GlcNAc
In short: as §1

[30] = target: Gal4S6S(b1-4)GlcNAc
In short: as §1

[31] = target: Gal6S(b1-4)Glc
In short: as §1

[32] = target: Gal6S(b1-4)Glc6S
In short: as §1

[33] = target: Gal6S(b1-4)GlcNAc
In short: as §1

[34] = target: Gal6S(b1-4)GlcNAc6S
In short: as §1

[35] = target: GalNAc(a1-3)Gal
In short: as §1

[36] = target: GalNAc(a1-3)GalNAc
In short: as §1

[37] = target: GalNAc(a1-3)GalNAc(a1-3)Gal(a1-4)Gal(b1-4)GlcNAc
In short: as §1

[38] = target: GalNAc(b1-3)Gal
In short: as §1

B1: exo-alpha-sialidase (Propionibacterium acnes), Q6A7G1 (protein)
chain: GSHMSGRAPAPVAATTQPKLVTGDITSTDQSGTNLFFGKKIVRNARGAIMKVDRTWPAAVPAPLPDVRADSSTRMLLGPVVDLAVNEHPEGVFYRIPALATASNGDLLASYDLRPGSAGDAPNPNSIVQRRSRDNGRTWGPQTVIHAGTPGRRKVGYSDPSYLVDPATGRILNFHVKSYDRGFATSEVGTDPDDRHVLHAEVSTSTDNGHTWTHRDITREITSDPTTRTRFVASGQGIALLHGPHAGRLIAQMTVRNSVGQQAQSIYSDDHGITWHAGNPVGRMMDENKVVELSDGTLMLNSRDAARSGRRKVAYSQDGGLTWGPVKLVDDLIDPTNNAQIIRAYPNARAGSAKARILLFTNARNATERVNGTLSVSCDDGRTWVSHQTYMPGEVGYTTAAVQSDGALGVLWERDGIRYSTIPMGWLNSVCPLAPSGRPTSGKPTSGTSLPPTAT
[1]
  glycan array binding signal (z-score): -0.373
[2]
  glycan array binding signal (z-score): -0.349
[3]
  glycan array binding signal (z-score): -0.333
[4]
  glycan array binding signal (z-score): -0.37
[5]
  glycan array binding signal (z-score): -0.363
[6]
  glycan array binding signal (z-score): -0.357
[7]
  glycan array binding signal (z-score): -0.294
[8]
  glycan array binding signal (z-score): -0.366
[9]
  glycan array binding signal (z-score): -0.362
[10]
  glycan array binding signal (z-score): -0.335
[11]
  glycan array binding signal (z-score): -0.359
[12]
  glycan array binding signal (z-score): -0.354
[13]
  glycan array binding signal (z-score): -0.371
[14]
  glycan array binding signal (z-score): -0.315
[15]
  glycan array binding signal (z-score): -0.33
[16]
  glycan array binding signal (z-score): -0.364
[17]
  glycan array binding signal (z-score): -0.343
[18]
  glycan array binding signal (z-score): -0.284
[19]
  glycan array binding signal (z-score): -0.332
[20]
  glycan array binding signal (z-score): -0.336
[21]
  glycan array binding signal (z-score): -0.309
[22]
  glycan array binding signal (z-score): -0.268
[23]
  glycan array binding signal (z-score): -0.276
[24]
  glycan array binding signal (z-score): -0.324
[25]
  glycan array binding signal (z-score): -0.151
[26]
  glycan array binding signal (z-score): -0.322
[27]
  glycan array binding signal (z-score): -0.227
[28]
  glycan array binding signal (z-score): -0.209
[29]
  glycan array binding signal (z-score): -0.361
[30]
  glycan array binding signal (z-score): -0.226
[31]
  glycan array binding signal (z-score): -0.332
[32]
  glycan array binding signal (z-score): -0.262
[33]
  glycan array binding signal (z-score): -0.342
[34]
  glycan array binding signal (z-score): -0.334
[35]
  glycan array binding signal (z-score): -0.369
[36]
  glycan array binding signal (z-score): -0.305
[37]
  glycan array binding signal (z-score): -0.368
[38]
  glycan array binding signal (z-score): -0.362
